Laboratory results as given in the RNAGym collection of RNA variant scans (doi:10.7554/elife.90254).
Read counts are not given, so values of variants with three or more changes are uncertain.

B1: LINE1-mini (parent)
chain: GGCAGAGCUCAACACAGCGUGGCAAAGUGGCUGUGGCUAGACUGCC

Variants of: B1
Assay: self-cleavage, relative activity (ratio to wild type); higher = more cleavage; in vitro, sequencing; the parent is a self-cleaving ribozyme
In the case of GGCAGAGCUCAACACAGCGUGGCAAAAUGUCUGUGGCUACACUGCC [G27A G30U G40C], the self-cleavage is reported as 0.27. In the case of GGCAGAGCUCAACACAGCGUGGCAAACUGGAUGUGGCUAAACUGAG [G27C C31A G40A C45A C46G], the self-cleavage is reported as 0.07. Variant GGCAGAGCUCAACACAGCGUGGCAAACUGGAUGUCGCUAGACUGCC [G27C C31A G35C] has a self-cleavage of 0.02. Variant GGCAGAGCUCAACACAGCGUGGCAAAAUGGGUGUGGCUAGAUUGCC [G27A C31G C42U] has a self-cleavage of 0.08. In the case of GGCAGAGCUCAACACAGCGUGGCAACGUAGCUGUGGCUACACUGCC [A26C G29A G40C], the self-cleavage is reported as 0.06. GGCAGAGCUCAACACAGCGUGGCAAACUGGCUGUGGGUAAACUGCC [G27C C37G G40A] gave a self-cleavage of 0.03. In the case of GGCAGAGCUCAACACAGCGUGGCAAGGUGGAUGUGGCUAGACCGCC [A26G C31A U43C], the self-cleavage is reported as 0.02. GGCAGAGCUCAACACAGCGUGGCAAACUGGUUGUGGCUAGACUACG [G27C C31U G44A C46G] showed a self-cleavage of 0. Work on GGCAGAGCUCAACACAGCGUGGCAAUAUGGCUGUGGCUAGACUGAC [A26U G27A C45A] yielded a self-cleavage of 0.35. Variant GGCAGAGCUCAACACAGCGUGGCAAGGUGUCUGUGGCUAGACAGGC [A26G G30U U43A C45G] has a self-cleavage of 0.07. GGCAGAGCUCAACACAGCGUGGCAAAAUUGCUGUAGCUAGACUGCC [G27A G29U G35A] showed a self-cleavage of 0.18. GGCAGAGCUCAACACAGCGUGGCAAAAUGGUUGUGGUUAGACCGCC [G27A C31U C37U U43C] showed a self-cleavage of 0.07. GGCAGAGCUCAACACAGCGUGGCAAUGUGGCGGUGGAUAGACUGCC [A26U U32G C37A] gave a self-cleavage of 0.04. In the case of GGCAGAGCUCAACACAGCGUGGCAAGGUGGCUUUGGCUAGCGUGCC [A26G G33U A41C C42G], the self-cleavage is reported as 0.03. Variant GGCAGAGCUCAACACAGCGUGGCAAUGCGGCUGUGGCUAGACUAGC [A26U U28C G44A C45G] has a self-cleavage of 0.05. For GGCAGAGCUCAACACAGCGUGGCAAUGUGGCCGUGGCUACACUGCC [A26U U32C G40C], the self-cleavage was 0.01. For GGCAGAGCUCAACACAGCGUGGCAAGGUGGCAGUGGCUAGACUGAC [A26G U32A C45A], the self-cleavage was 0.01. With GGCAGAGCUCAACACAGCGUGGCAAUGUGGUUGUGGCCAGACUGGC [A26U C31U U38C C45G] the self-cleavage was 0.02. Work on GGCAGAGCUCAACACAGCGUGGCAAGGUGGCUGUGGCUAGGUUGCC [A26G A41G C42U] yielded a self-cleavage of 0.12. With GGCAGAGCUCAACACAGCGUGGCAAACUGUCUGUUCCUAGACUGCC [G27C G30U G35U G36C] the self-cleavage was 0.12. GGCAGAGCUCAACACAGCGUGGCAAUGUGCCUGUGGCUAGACUUCC [A26U G30C G44U] gave a self-cleavage of 0.66. GGCAGAGCUCAACACAGCGUGGCAAACUGCCUGUGGGUGUACUGCC [G27C G30C C37G A39G G40U] showed a self-cleavage of 0.03. For GGCAGAGCUCAACACAGCGUGGCAAAAUGGCUGUGGCUCAUCUGCC [G27A A39C G40A A41U], the self-cleavage was 0.24. Work on GGCAGAGCUCAACACAGCGUGGCAAACUGGCUGUGCCUAUACUGCC [G27C G36C G40U] yielded a self-cleavage of 0.04. Work on GGCAGAGCUCAACACAGCGUGGCAAAAUGGCUGCGGAUAGACUGCC [G27A U34C C37A] yielded a self-cleavage of 0.04. GGCAGAGCUCAACACAGCGUGGCAAAAUGGUUAUGACUAGACUGCC [G27A C31U G33A G36A] showed a self-cleavage of 0.02. GGCAGAGCUCAACACAGCGUGGCAAGGUGGCUAUGGCAAGACUGCG [A26G G33A U38A C46G] gave a self-cleavage of 0.03. With GGCAGAGCUCAACACAGCGUGGCAAACUGGCCGUGGCUAGACUGCU [G27C U32C C46U] the self-cleavage was 0.45. In the case of GGCAGAGCUCAACACAGCGUGGCAACGUGACUGUGGCUAGACAGCC [A26C G30A U43A], the self-cleavage is reported as 0.12. Variant GGCAGAGCUCAACACAGCGUGGCAAGGUGGAUGAGGCUACACUGCC [A26G C31A U34A G40C] has a self-cleavage of 0.1. GGCAGAGCUCAACACAGCGUGGCAAACUGGCUGUGGGUAGACUGGC [G27C C37G C45G] showed a self-cleavage of 0.02. GGCAGAGCUCAACACAGCGUGGCAAAAUGGCUGUGGCUAAAAUGCC [G27A G40A C42A] showed a self-cleavage of 0.04. GGCAGAGCUCAACACAGCGUGGCAAGGUCGCUGUGGCUAGACUGCU [A26G G29C C46U] showed a self-cleavage of 1. With GGCAGAGCUCAACACAGCGUGGCAAACUUGCUGUGGCUAAACUGCC [G27C G29U G40A] the self-cleavage was 0.03. GGCAGAGCUCAACACAGCGUGGCAAAAUCGCUGUGGCUAGAAUGCC [G27A G29C C42A] gave a self-cleavage of 0.08. Work on GGCAGAGCUCAACACAGCGUGGCAAUUUUGCUGUGGCUAGACUACC [A26U G27U G29U G44A] yielded a self-cleavage of 0.52. GGCAGAGCUCAACACAGCGUGGCAAUGUGGCUGUGACUAGACUGCA [A26U G36A C46A] showed a self-cleavage of 0.23. With GGCAGAGCUCAACACAGCGUGGCAAUUUGGCUGUGGCUACACUGCC [A26U G27U G40C] the self-cleavage was 0.15. For GGCAGAGCUCAACACAGCGUGGCAACGUAUCUGUGGCUAAACUGCC [A26C G29A G30U G40A], the self-cleavage was 0.09. Work on GGCAGAGCUCAACACAGCGUGGCAACGUGGCUGGGGCUAGAAUGCC [A26C U34G C42A] yielded a self-cleavage of 0.03. Variant GGCAGAGCUCAACACAGCGUGGCAAGGUGACUGUGGCUAGACAGCC [A26G G30A U43A] has a self-cleavage of 0.17. For GGCAGAGCUCAACACAGCGUGGCAAACUGGGAGGGGCUAGACUGCC [G27C C31G U32A U34G], the self-cleavage was 0.02. Variant GGCAGAGCUCAACACAGCGUGGCAAAACGGCUGUGGCUAGUCUGCC [G27A U28C A41U] has a self-cleavage of 1.62. In the case of GGCAGAGCUCAACACAGCGUGGCAAGGUGGCUGUGGAUAGACUGCA [A26G C37A C46A], the self-cleavage is reported as 0.06. In the case of GGCAGAGCUCAACACAGCGUGGCAAACUGACUGUGGCUAUACUGCU [G27C G30A G40U C46U], the self-cleavage is reported as 0.14. GGCAGAGCUCAACACAGCGUGGCAAACUCGCUGUGGCUAGACCGCC [G27C G29C U43C] gave a self-cleavage of 0.02. Work on GGCAGAGCUCAACACAGCGUGGCAAGGUGGGUGUGGCUAGACUGUC [A26G C31G C45U] yielded a self-cleavage of 0.1. For GGCAGAGCUCAACACAGCGUGGCAACGUGGCUGUGGCAAGACUGCG [A26C U38A C46G], the self-cleavage was 0.06. In the case of GGCAGAGCUCAACACAGCGUGGCAAACUGGCGGUGGCUCGACUGCC [G27C U32G A39C], the self-cleavage is reported as 0.05. GGCAGAGCUCAACACAGCGUGGCAAGGUGGCUGUGCCUAUACUGCC [A26G G36C G40U] showed a self-cleavage of 0.05. Work on GGCAGAGCUCAACACAGCGUGGCAAGGUGGCUGUGGGUAGACUACC [A26G C37G G44A] yielded a self-cleavage of 0.01. GGCAGAGCUCAACACAGCGUGGCAAGGUGGCUUUGGCUAGACUGAC [A26G G33U C45A] showed a self-cleavage of 0.09. For GGCAGAGCUCAACACAGCGUGGCAACGAGGCGUUGGCUAGACUGCC [A26C U28A U32G G33U], the self-cleavage was 0.03. GGCAGAGCUCAACACAGCGUGGCAAACUGGCUGUGGCUAGUCCGCC [G27C A41U U43C] gave a self-cleavage of 0.06. GGCAGAGCUCAACACAGCGUGGCAAACUGGCUCUAGCUAGACUGCC [G27C G33C G35A] showed a self-cleavage of 0.05. With GGCAGAGCUCAACACAGCGUGGCAAUGUGGAUGUGGCUAGACUGAC [A26U C31A C45A] the self-cleavage was 0.09.
